Laboratory results from patent publication US20100330105A1, “Anticancer Combination Therapies” (priority 2006, published 2010).

Legend:
TC-1 tumor cells [1] = details: TC-1 tumor challenged mice
E7-specific CD8+ T cells = test: Intracellular cytokine staining and flow cytometry, E7-specific CD8+ T cells (cisplatin and/or DNA vaccine); type: in vivo, C57BL/6 mice; details: TC-1 tumor-bearing mice, cisplatin alone versus no cisplatin (p<0.005)
Description: The stimulated splenocytes were then washed once with FACScan buffer and stained with phycoerythrin-conjugated monoclonal rat anti-mouse CD8a (clone 53.6.7). Cells were subjected to intracellular cytokine staining using the Cytofix/Cytoperm kit according to the manufacturer's instruction (BD Pharmingen, San Diego, Calif., USA). Intracellular IFN-γ was stained with FITC-conjugated rat anti-mouse IFN-γ. All antibodies were purchased from BD Pharmingen. Flow cytometry analysis was performed using FACSCalibur with CELLQuest software (BD Biosciences, Mountain View, Calif., USA).
Thirty days after tumor challenge, splenocytes from nontreated and treated mice were harvested and stained for CD8 and intracellular IFN-γ. […] (A) Representative data of intracellular cytokine stain followed by flow cytometry analysis showing the number of E7-specific IFNγ+CD8+ T cells in the different groups.

[2] = test system: Luciferase-expressing TC-1 cells; test: In vitro CTL assay after cisplatin treatment (luciferase-expressing TC-1 cells); type: cell-based, mouse; details: 5 ug/ml cisplatin and 1×10^6 E7-specific CTL; versus cisplatin alone or CTL alone (p<0.005)
Description: Luciferase-expressing TC-1 cells in medium were seeded into a 24-well roundbottom plate (5×10^4 cells/well). After sitting overnight, the medium was replaced with 1 ml of fresh medium containing 5 μg of cisplatin. The mixture of TC-1 tumor cells and cisplatin-containing medium was incubated in 5% CO2 for 24 h at 37° C. E7-specific cytotoxic T lymphocytes from the spleens of tumor challenged mice immunized with the DNA vaccine served as effector cells and were added in the amount of 1×10^6 cells/well. TC-1 cells expressing luciferase were used as target cells. […]
In FIG. 21, Luciferase-expressing TC-1 tumor cells were added to 24-well plates at a dose of 1×10^6/well. […] The degree of CTL-mediated killing of the tumor cells was indicated by the decrease of luminescence activity using the IVIS luminescence imaging system series 200. […] A) Representative luminescence images of 24-well plates showing lysis of the tumor cells. B) Bar graph depicting the quantification of luminescence intensity in tumor cells treated with cisplatin and/or E7-specific cytotoxic T cells (mean+s.d.). Note: The TC-1 tumor cells treated with cisplatin and E7-specific cytotoxic T cells led to significant loss of luminescence intensity indicating enhanced lysis of tumor cells by the E7-specific CD8+T cells (p<0.005).

TC-1 tumor cells [3] = test: Determination of apoptotic cells in tumors (anti-active caspase-3, flow cytometry)
TC-1 tumor cells [4] = test: In vivo tumor growth experiments in tumor challenged mice treated with EGCG; set-up: species or system C57BL/6 mice
Description: Determination of apoptotic cells in tumors. […] Intracellular cytokine staining and flow cytometry analysis. […] In vivo tumor growth experiments.

Cc1ccc2c(=O)c3cccc(CC(=O)O)c3oc2c1C [DMXAA, 5,6-dimethylxanthenone-4-acetic acid]
difference of tumor volumes, DMXAA alone versus CRT DNA (TC-1 tumor cells [1]): no statistical significance

N.N.[Cl][Pt][Cl] [cisplatin]
numbers of E7-specific CD8+ T cell precursors (E7-specific CD8+ T cells): significantly increased numbers
luciferase activity (CTL-mediated killing of TC-1 tumor cells) [2]: lowest luciferase activity

epigallocatechin-3-gallate [EGCG]
increase in the percentage of apoptosis in TC-1 tumors (TC-1 tumor cells [3]; 2.5 mg/ml EGCG compared to 0 mg/ml EGCG): greater than 11 fold
tumor cell apoptosis versus EGCG dose (TC-1 tumor cells [3]; EGCG 0, 0.1, 0.5 or 2.5 mg/ml in drinking water): dose-dependent apoptosis
percentage of apoptosis in TC-1 tumors (TC-1 tumor cells [3]; EGCG 2.5 mg/ml in drinking water for five days, started 10 days after tumor inoculation): 3.41%
tumor volume 1 week after termination of EGCG treatment (TC-1 tumor cells [4]; EGCG 0 to 0.5 mg/ml in drinking water for five days): correlative decrease in tumor volume
tumor volume 1 week after termination of EGCG treatment (TC-1 tumor cells [4]; EGCG 2.5 mg/ml, compared to 0.5 mg/ml): relative increase in tumor volume
tumor regression (TC-1 tumor cells [4]; mice bearing tumors treated with only EGCG): dramatic regressions of the tumors did not occur
